Laboratory results from paper PMC5719087.
Results are given in words; binding and its absence hold for the method and conditions named. Binding seen in cells or lysates may run through a third protein. Some binding calls cover weakened binding; strength is not graded here.

B1: Arabidopsis thaliana dehydrin AtCOR47 (protein, UniProt P31168 1-265)
chain: MAEEYKNNVPEHETPTVATEESPATTTEVTDRGLFDFLGKKEEEVKPQETTTLESEFDHKAQISEPELAAEHEEVKENKITLLEELQEKTEEDEENKPSVIEKLHRSNSSSSSSSDEEGEEKKEKKKKIVEGEEDKKGLVEKIKEKLPGHHDKTAEDDVPVSTTIPVPVSESVVEHDHPEEEKKGLVEKIKEKLPGHHDEKAEDSPAVTSTPLVVTEHPVEPTTELPVEHPEEKKGILEKIKEKLPGYHAKTTEEEVKKEKESDD
B2: Arabidopsis thaliana dehydrin AtERD10 (protein, UniProt P42759 1-260)
chain: MAEEYKNTVPEQETPKVATEESSAPEIKERGMFDFLKKKEEVKPQETTTLASEFEHKTQISEPESFVAKHEEEEHKPTLLEQLHQKHEEEEENKPSLLDKLHRSNSSSSSSSDEEGEDGEKKKKEKKKKIVEGDHVKTVEEENQGVMDRIKEKFPLGEKPGGDDVPVVTTMPAPHSVEDHKPEEEEKKGFMDKIKEKLPGHSKKPEDSQVVNTTPLVETATPIADIPEEKKGFMDKIKEKLPGYHAKTTGEEEKKEKVSD
B3: AKIN10 kinase subunit from Arabidopsis (protein, UniProt Q38997 1-512)
chain: MDGSGTGSRSGVESILPNYKLGRTLGIGSFGRVKIAEHALTGHKVAIKILNRRKIKNMEMEEKVRREIKILRLFMHPHIIRLYEVIETPTDIYLVMEYVNSGELFDYIVEKGRLQEDEARNFFQQIISGVEYCHRNMVVHRDLKPENLLLDSKCNVKIADFGLSNIMRDGHFLKTSCGSPNYAAPEVISGKLYAGPEVDVWSCGVILYALLCGTLPFDDENIPNLFKKIKGGIYTLPSHLSPGARDLIPRMLVVDPMKRVTIPEIRQHPWFQAHLPRYLAVPPPDTVQQAKKIDEEILQEVINMGFDRNHLIESLRNRTQNDGTVTYYLILDNRFRASSGYLGAEFQETMEGTPRMHPAESVASPVSHRLPGLMEYQGVGLRSQYPVERKWALGLQSRAHPREIMTEVLKALQDLNVCWKKIGHYNMKCRWVPNSSADGMLSNSMHDNNYFGDESSIIENEAAVKSPNVVKFEIQLYKTRDDKYLLDLQRVQGPQFLFLDLCAAFLAQLRVL
B4: Arabidopsis thaliana dehydrin AtRAB18 (protein, UniProt P30185 1-186)
chain: MASYQNRPGGQATDEYGNPIQQQYDEYGNPMGGGGYGTGGGGGATGGQGYGTGGQGYGSGGQGYGTGGQGYGTGTGTEGFGTGGGARHHGQEQLHKESGGGLGGMLHRSGSGSSSSSEDDGQGGRRKKGITQKIKEKLPGHHDQSGQAQAMGGMGSGYDAGGYGGEHHEKKGMMDKIKEKLPGGGR
B5: AKINβ2 kinase subunit from Arabidopsis (protein, UniProt Q9SCY5 1-289)
chain: MGNVNAREEANSNNASAVEDEDAEICSREAMSAASDGNHVAPPELMGQSPPHSPRATQSPLMFAPQVPVLPLQRPDEIHIPNPSWMQSPSSLYEEASNEQGIPTMITWCHGGKEIAVEGSWDNWKTRSRLQRSGKDFTIMKVLPSGVYEYRFIVDGQWRHAPELPLARDDAGNTFNILDLQDYVPEDIQSISGFEPPQSPENSYSNLLLGAEDYSKEPPVVPPHLQMTLLNLPAANPDIPSPLPRPQHVILNHLYMQKGKSGPSVVALGSTHRFLAKYVTVVLYKSLQR

What was measured:
Experiment in all cases: split reporter; BiFC with pYFN43 and pYFC43 fusions co-infiltrated (with p19) into N. benthamiana abaxial leaf cells by A. tumefaciens; confocal microscopy three days after infiltration
[1] = target: T1, Arabidopsis thaliana dehydrin AtRAB18 (Arabidopsis thaliana) (UniProt P30185)
T1 sequence: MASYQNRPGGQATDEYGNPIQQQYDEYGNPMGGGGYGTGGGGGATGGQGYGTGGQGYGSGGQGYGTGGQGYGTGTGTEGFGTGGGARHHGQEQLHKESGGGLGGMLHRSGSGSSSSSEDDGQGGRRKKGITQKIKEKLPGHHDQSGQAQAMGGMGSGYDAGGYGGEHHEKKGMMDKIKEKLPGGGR

[2] = target: T2, Arabidopsis thaliana dehydrin AtERD10 (Arabidopsis thaliana) (UniProt P42759)
T2 sequence: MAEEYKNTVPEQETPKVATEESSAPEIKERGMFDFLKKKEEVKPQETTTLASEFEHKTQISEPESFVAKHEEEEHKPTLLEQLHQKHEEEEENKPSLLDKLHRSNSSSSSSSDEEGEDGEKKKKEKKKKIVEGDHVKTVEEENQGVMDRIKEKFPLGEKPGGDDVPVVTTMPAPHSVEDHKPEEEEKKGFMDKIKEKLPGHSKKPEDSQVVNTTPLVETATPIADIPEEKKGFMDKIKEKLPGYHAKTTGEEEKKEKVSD

[3] = target: T3, Arabidopsis thaliana dehydrin AtCOR47 (Arabidopsis thaliana) (UniProt P31168)
T3 sequence: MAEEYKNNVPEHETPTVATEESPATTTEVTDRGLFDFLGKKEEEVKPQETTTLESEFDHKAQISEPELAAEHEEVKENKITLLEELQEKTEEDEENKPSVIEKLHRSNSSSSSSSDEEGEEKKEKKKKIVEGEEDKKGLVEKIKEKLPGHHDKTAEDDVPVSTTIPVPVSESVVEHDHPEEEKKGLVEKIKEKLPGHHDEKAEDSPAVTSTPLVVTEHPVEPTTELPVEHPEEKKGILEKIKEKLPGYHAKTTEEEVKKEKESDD

[4] = target: T4, AKINβ2 kinase subunit from Arabidopsis (Arabidopsis) (UniProt Q9SCY5)
T4 sequence: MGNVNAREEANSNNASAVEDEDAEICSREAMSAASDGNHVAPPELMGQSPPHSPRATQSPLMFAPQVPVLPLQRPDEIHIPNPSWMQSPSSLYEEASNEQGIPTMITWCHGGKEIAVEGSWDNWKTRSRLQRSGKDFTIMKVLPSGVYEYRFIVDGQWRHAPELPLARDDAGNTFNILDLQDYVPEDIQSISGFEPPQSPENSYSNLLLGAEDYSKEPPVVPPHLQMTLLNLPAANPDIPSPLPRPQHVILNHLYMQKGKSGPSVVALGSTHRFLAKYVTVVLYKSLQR

| Binder | binding [1] | binding [2] | binding [3] | binding [4] |
| --- | --- | --- | --- | --- |
| B1 | binds | binds | binds |  |
| B2 | binds | binds | binds |  |
| B3 | no binding | no binding | no binding | binds |
| B4 | binds | binds | binds |  |
| B5 | no binding | no binding | no binding |  |
